# Experimental data as given in PubChem BioAssay AID1346428 (National Center for Advancing Translational Sciences (NCATS), 2018).
# Where “and” joins values, the source holds several entries; their conditions need not be identical. Equal values may be shown once. Hit rate of the full screen: of about 48,000 compounds, about 1,200 (2.5%) were called active. Not shown: some 2% with an inconclusive outcome.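 The calls were made as follows: active = activation of at least 60% and not above a set upper limit (about 1 call in 100 departs from these limits); inconclusive = activation of 40% to 60%, or above that upper limit; inactive = activation under 40%.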 The list shows a part of the results.
# Molecular target: Probable G-protein coupled receptor 32 (Homo sapiens) (UniProt O75388)
# Assay: qHTS for Agonists of Human Resolvin D1 Receptor DRV1; also: 0% is about no effect
# Conditions: CHO-K1 GPR32 beta-arrestin PathHunter luminescence, 90 min; at 76.9 µM; hits give high values; zero percent set by DMSO-only wells
# Method in brief: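 PathHunter enzyme-fragment complementation, CHO-K1 GPR32 stable line; 2,500 cells/well, overnight attach; cpd 90 min 37 °C 5% CO2; detection reagent 1 h RT; chemiluminescence. DMSO = EC0.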
# UniProt O75388, sequence (O75388 whole entry, looked up): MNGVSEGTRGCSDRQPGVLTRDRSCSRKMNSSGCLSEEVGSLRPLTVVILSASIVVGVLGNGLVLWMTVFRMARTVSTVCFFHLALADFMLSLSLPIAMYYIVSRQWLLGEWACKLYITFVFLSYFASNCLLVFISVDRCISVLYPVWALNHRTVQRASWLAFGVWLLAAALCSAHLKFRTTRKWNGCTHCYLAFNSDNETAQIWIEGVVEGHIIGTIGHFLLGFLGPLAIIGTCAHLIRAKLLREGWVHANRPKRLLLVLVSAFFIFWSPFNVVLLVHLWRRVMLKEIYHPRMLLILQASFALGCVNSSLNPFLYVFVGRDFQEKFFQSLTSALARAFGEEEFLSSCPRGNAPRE
row,SMILES,activation
1,COc1ccc(Cn2c(SCc3ccc(C(=O)NCCc4ccccc4)cc3)nc3cccnc32)cc1,inactive: 22.9%
2,Cn1c(=O)n(C/C=C/c2ccccc2)c(=O)c2c1nc1n2CCN1c1ccc(Cl)cc1,inactive: -0.165%
3,Cc1nn(C(=O)c2cccc(F)c2)c(C)c1S(=O)(=O)N1CCCCCC1,inactive: 3.63%
4,CCC(C)NC(=O)Cn1c(=O)n(Cc2ccc(C(=O)NCc3ccccc3OC)cc2)c(=O)c2ccccc21 (centres undefined),inactive: -3.45%
5,CCCN1CCN(CCCNC(=O)Cn2c(-c3cccs3)cc3ccccc32)CC1,inactive: 1.41%
6,Cc1ccc(NC(=O)CSc2ncnc3c2sc2ccccc23)cc1C,inactive: -10.7%
7,CCn1cc(S(=O)(=O)c2ccc(C)cc2)c(=O)c2cc(F)c(N3CCCCCC3)cc21,inactive: 0.644%
8,CCOC(=O)c1[nH]c(C)c(CCC(=O)NCc2ccccc2C)c1C,inactive: -13.9%
9,Cn1nc(-c2ccccc2F)c2cc(C(=O)N3CCN(c4ccc(F)cc4)CC3)sc21,inactive: 20.3%
10,Cc1ccc(C)c(NC(=O)CSc2nc(=O)n(Cc3ccccn3)c3c2CCC3)c1,inactive: -1.14%
11,Cc1cccc(N2CCN(S(=O)(=O)c3ccc(F)c(C(=O)Nc4ccc(C(C)C)cc4)c3)CC2)c1C,inactive: -6.45%
12,COc1ccc(OC)c(Nc2ncnc3c2cnn3-c2ccc(C)cc2)c1,inactive: 36%
13,Cc1cc(C)cc(NS(=O)(=O)c2ccc3[nH]cc(C(=O)N4CCCCCC4)c(=O)c3c2)c1,inactive: 7.52%
14,COc1ccc(-c2noc(CN3CCN(c4cccc(Cl)c4)CC3)n2)cc1,inactive: 15.6%
15,NCCc1ccc(O)c(O)c1,inactive: -1.56% and inactive: -0.525%
16,C#CC(C)(CC)NC(=O)c1cc2c(n(-c3ccc(Cl)cc3)c1=O)CC(C)(C)CC2=O (centres undefined),inactive: -6.44%
17,O=C(C1CCC1)N1CCCc2cc(S(=O)(=O)Nc3ccc(F)cc3)ccc21,inactive: -8.6%
18,COc1ccccc1N(CC(=O)Nc1ccc(C)c(Cl)c1)S(=O)(=O)c1ccc(C)cc1,inactive: -0.0267%
19,CCOc1ccc(CC(=O)NC2CC(=O)N(c3ccc(C)c(C)c3)C2)cc1 (centres undefined),inactive: 2.63%
20,CC(=O)N1c2ccccc2C(=O)C1N1CCN(c2cccc(C(F)(F)F)c2)CC1 (centres undefined),inactive: -48.6%
21,CC(=O)N1CCc2cc(Br)cc(S(=O)(=O)N3CCN(c4cc(C)ccc4C)CC3)c21,inactive: 2.06%

row,SMILES,activation
1,COCCn1c(C)cc(O)c(C(c2ccc(C)cc2)N2CCCCC2)c1=O (centres undefined),inactive: -15.1%
2,Cc1cccc(CNC(=O)CCCN2C(=O)CCn3nc(-c4cn(C)c5ccccc45)cc32)c1,inactive: -7.86%
3,Cn1cc(-c2cc3n(n2)CCC(=O)N3CC(=O)O)c2ccccc21,inactive: -19.4%
4,Cc1ccccc1OCC(=O)N(Cc1ccc(N(C)C)cc1)CC1CCCO1 (centres undefined),inactive: -24.8%
5,OCc1nc2ccccc2n1Cc1c(F)cccc1Cl,inactive: -9.06%
6,CCN1CCN(c2c(S(=O)(=O)c3ccccc3)cnc3ccc(Cl)cc23)CC1,inactive: -17%
7,CCN(CC)c1ccc(NC(=O)c2cc(S(=O)(=O)N3CCc4ccccc43)cn2C)c(C)c1,inactive: -22.7%
8,CCC(=O)NCC(c1ccc2c(c1)OCO2)N1CCN(c2ccccc2)CC1 (centres undefined),inactive: -13.2%
9,CCOc1ccc(NCc2cccn2-c2nnc(N3CCC(C(=O)NCCc4ccc(OC)c(OC)c4)CC3)s2)cc1,inactive: -25%
10,COc1ccc(-c2[nH]nc3nc(-c4cc(OC)c(OC)c(OC)c4)cc(C(=O)O)c23)cc1,inactive: -18%
11,COc1ccc(N2CCN(C(=O)CCc3c(C)nc4cc(-c5ccc(Cl)cc5)nn4c3C)CC2)cc1,inactive: -1.8%
12,Cc1ccc(CCNC(=O)c2cn(C)c3ccc(S(=O)(=O)N4CCCCC4)cc3c2=O)cc1,inactive: -0.835%
13,CCCS(=O)(=O)N1CCCC(C(=O)NCCCOC)C1 (centres undefined),inactive: -5.54%
14,Cc1ccccc1CNC(=O)C(=O)NCC(c1ccco1)S(=O)(=O)c1ccccc1 (centres undefined),inactive: -16.4%
15,COc1ccc(C(=O)Nc2nnc(S(=O)(=O)N(C)c3ccc(Cl)cc3)s2)cc1OC,inactive: 11.6%
16,Cc1ccc2[nH]c(CSc3nnc(NC(=O)c4ccccc4C)s3)cc(=O)c2c1,inactive: 46.8%
17,CCCCCC=CCC=CCCCCCCCC(=O)OCC,active: 63.3%
18,O=C(NCc1ccccc1Cl)c1cc2ccccc2o1,inactive: 22.3%
19,COc1cc(OC)cc(C(=O)Nc2ccc3c(c2)N(C2CCCC2)C(=O)c2ccccc2S3)c1,inactive: -10.5%
20,O=C(CSc1nc2ccccc2nc1Cc1ccccc1)N1CCCCC1,inactive: 34.4%
21,CCc1cccc(NC(=O)CCS(=O)(=O)c2cc(Br)cc3c2N(C(C)=O)CC3)c1,inactive: -12.4%

row,SMILES,activation
1,COc1cc(-c2nc3ncccn3c2Nc2ccc(C)cc2C)ccc1O,inactive: -28.6%
2,Cc1ccc(C)c(N2CCN(S(=O)(=O)c3c(C)nc4sccn4c3=O)CC2)c1,inactive: 6.01%
3,CCOc1ccccc1NC(=O)N1CCN(Cc2nc3ccc(C)cc3o2)CC1,inactive: 6.23%
4,CCc1ccc(C2CC(=O)Nc3c2c(C)nn3-c2nc(C)cc(C)n2)cc1 (centres undefined),inactive: -16.5%
5,CCOc1ccc(-c2nnc(SCC(=O)NCc3ccccc3)nc2-c2ccc(OCC)c(OC)c2)cc1OC,inactive: -18.2%
6,CCCCOc1cccc(C(=O)Nc2ccc3oc(-c4cccnc4)nc3c2)c1,inactive: 12%
7,Cc1cc(C)cc(-n2c(SCC(N)=O)nc3c(oc4ccccc43)c2=O)c1,inactive: -1.5%
8,COc1cccc(Nc2c3c(nc4nncn24)CCC3)c1,inactive: -8.02%
9,CCOc1ccccc1NC(=O)Cn1cnc2sc(C)c(S(=O)(=O)N3CCC(C)CC3)c2c1=O,inactive: -9.19%
10,CC1=Nc2cc(C(=O)NC3CCCC3)ccc2Sc2ccc(C)cc21,inactive: -14.4%
11,COC(=O)c1cc(C)nc2c1c(=O)nc(SCc1cccc(C)c1)n2C1CC1,inactive: -11.4%
12,Cc1nn(-c2nc(-c3ccc(F)cc3)cc(C(F)(F)F)n2)c(C)c1Br,inactive: -10.2%
13,COc1ccc(NC(=O)Cn2c(C)cc3ccccc3c2=O)c(OC)c1,inactive: -8.76%
14,COc1cccc(C(=O)Nc2ccccc2C(=O)OCc2cc(=O)n3c(C)csc3n2)c1,inactive: -14.4%
15,O=C(Nc1ccc(N2CCC(c3ccccc3)C2)c(C(=O)O)c1)c1ccc(Cl)cc1 (centres undefined),inactive: 3.99%
16,COc1cccc(NC(=O)CCc2c(C)nc3c4cccnc4nn3c2C)c1,inactive: -4.33%
17,CCOc1ccc(Oc2nc(NCC(C)C)nc(NC(C)(C)C)n2)nn1,inactive: -13.7%
18,CCOC(=O)c1ccccc1NC(=O)Nc1cc2c(cc1N1CCCCC1)n(C)c(=O)n2C,inactive: 29.2%
19,CCOc1ccc(CNC(=O)CCS(=O)(=O)c2cc3c(cc2Cl)NC(=O)CO3)cc1OC,inactive: -15.1%
20,Cc1cccc(NC(=O)CN2C(=O)c3cccnc3Oc3ccc(Cl)cc32)c1C,inactive: -29.3%
21,CSc1ccc(CCNC(=O)CCCn2nc(C)c3sc4ccccc4c3c2=O)cc1,inactive: -18.2%

row,SMILES,activation
1,CC(=O)c1ccc(NC(=O)CC2Nc3cccc4cccc(c34)NC2=O)cc1 (centres undefined),inactive: 32.5%
2,COc1ccccc1OCC(=O)N(Cc1ccc(Cl)cc1)CC1CCCO1 (centres undefined),inactive: -11.1%
3,NC(N)=NC(N)=Nc1ccccc1,inactive: 1.4%
4,CCc1cccc(CC)c1NC(=O)c1ccc2c(c1)CCN2S(=O)(=O)c1ccccc1,inactive: 0.0321%
5,COCCCNc1ncnc2onc(-c3ccc(F)cc3)c12,inactive: 35.8%
6,CC(C)CCNC(=O)Nc1ccc2c(c1)N(C)C(=O)c1ccccc1S2,inactive: 16.1%
7,COc1cccc(NC(=O)Cn2cnc3c(nc4n3CCCCC4)c2=O)c1,inactive: 7.2%
8,COc1ccc(C(=O)NCCn2cc(SCC(=O)NCCc3ccc(OC)c(OC)c3)c3ccccc32)cc1,inactive: 43.1%
9,Cc1ccc(NC(=O)Cn2c(=O)c3cc(Cl)ccc3n3nncc23)cc1,inactive: 17.9%
10,Cc1n[nH]c(C)c1S(=O)(=O)N(CC(=O)NC(C)c1ccccc1)c1ccc(C(C)C)cc1 (centres undefined),inactive: 48.1%
11,COCCCNC(=O)CN1C(=O)COc2ccc(S(=O)(=O)N3CCCC3)cc21,inactive: -4.66%
12,CC1=C(c2ccc(C)c(C)c2)S(=O)(=O)N=C1N1CCC(C(=O)NCCc2ccco2)CC1,inactive: -6.51%
13,Cc1ccc(-c2cc(C(=O)N3CCN(S(=O)(=O)c4ccc(Br)cc4)CC3)[nH]n2)cc1C,inactive: -19.3%
14,CS(=O)(=O)N1CCc2cc(C(=O)NCCc3ccccc3)ccc21,inactive: 8.23%
15,COc1ccccc1N1CCN(C(=O)CCNS(=O)(=O)c2ccc3c(c2)CCN3C(=O)C2CC2)CC1,inactive: 36%
16,Cc1ccc(CNC(=O)Cn2cc(S(=O)(=O)Cc3ccccc3F)c3ccccc32)cc1,inactive: -8.68%
17,COc1ccc(Cl)cc1NC(=O)CSC1=Nc2ccccc2C2=NC(CC(=O)NCc3ccc4c(c3)OCO4)C(=O)N12 (centres undefined),inactive: -16%
18,Cc1ccc(NC(=O)c2cnc(SCC(=O)Nc3cc(C)on3)n(C)c2=O)cc1,inactive: -7.88%
19,CCn1c(=O)n(CC)c2cc(N3CCCCC3)c(NC(=O)Nc3ccccc3C(F)(F)F)cc21,inactive: -30.7%
20,Cc1cc(C)n2nc(SCC(=O)Nc3cccc(C(F)(F)F)c3)nc2n1,active: 61.5%
21,COc1ccccc1C(=O)Nc1ccc2c(c1)nc(CN1CCCCC1)n2C,inactive: -7.48%
